Experimental findings from article PMC9911399, “Two distinct binding modes provide the RNA-binding protein RbFox with extraordinary sequence specificity” are described below.

Where a chain is given by its changes, count along the chain named. The list shows a part of the results.

First the molecules themselves.
T1: RBFOX1 RRM RbFoxmut (Fox-RRM*) (Homo sapiens, UniProt Q9NWB1 109-208, R118D;E147R;N151S;E152T)
T1 sequence: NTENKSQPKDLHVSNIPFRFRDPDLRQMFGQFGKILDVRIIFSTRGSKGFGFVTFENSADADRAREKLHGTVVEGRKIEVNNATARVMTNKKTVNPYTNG

B1: UUUUCGU (DNA:RNA)
RNA: GGGAGACCGGAAUUCAGAUUGUCCUUUUCGUUUAAAUCCCGUCGUAGCCACCA
DNA 1: CAATCTGAATTCCGGTCTCCC
DNA 2: TGGTGGCTACGACGGGATT
B2: UAAUGCA (DNA:RNA)
RNA: B1 RNA with U26A, U27A, C29G, G30C, U31A
DNA 1: CAATCTGAATTCCGGTCTCCC
DNA 2: TGGTGGCTACGACGGGATT
B3: UGUCUAG (DNA:RNA)
RNA: B1 RNA with U26G, U28C, C29U, G30A, U31G
DNA 1: CAATCTGAATTCCGGTCTCCC
DNA 2: TGGTGGCTACGACGGGATT
B4: GAUCUAU (DNA:RNA)
RNA: B1 RNA with U25G, U26A, U28C, C29U, G30A
DNA 1: CAATCTGAATTCCGGTCTCCC
DNA 2: TGGTGGCTACGACGGGATT
B5: CUUUACU (DNA:RNA)
RNA: B1 RNA with U25C, C29A, G30C
DNA 1: CAATCTGAATTCCGGTCTCCC
DNA 2: TGGTGGCTACGACGGGATT
B6: UUCACUG (DNA:RNA)
RNA: B1 RNA with U27C, U28A, G30U, U31G
DNA 1: CAATCTGAATTCCGGTCTCCC
DNA 2: TGGTGGCTACGACGGGATT
B7: CUGAUUC (DNA:RNA)
RNA: B1 RNA with U25C, U27G, U28A, C29U, G30U, U31C
DNA 1: CAATCTGAATTCCGGTCTCCC
DNA 2: TGGTGGCTACGACGGGATT
B8: UCCUGGA (DNA:RNA)
RNA: B1 RNA with U26C, U27C, C29G, U31A
DNA 1: CAATCTGAATTCCGGTCTCCC
DNA 2: TGGTGGCTACGACGGGATT
B9: UGGGUGA (DNA:RNA)
RNA: B1 RNA with U26G, U27G, U28G, C29U, U31A
DNA 1: CAATCTGAATTCCGGTCTCCC
DNA 2: TGGTGGCTACGACGGGATT
B10: AAGUAAC (DNA:RNA)
RNA: B1 RNA with U25A, U26A, U27G, C29A, G30A, U31C
DNA 1: CAATCTGAATTCCGGTCTCCC
DNA 2: TGGTGGCTACGACGGGATT
B11: AAUUCGG (DNA:RNA)
RNA: B1 RNA with U25A, U26A, U31G
DNA 1: CAATCTGAATTCCGGTCTCCC
DNA 2: TGGTGGCTACGACGGGATT
B12: UUCGGCU (DNA:RNA)
RNA: B1 RNA with U27C, U28G, C29G, G30C
DNA 1: CAATCTGAATTCCGGTCTCCC
DNA 2: TGGTGGCTACGACGGGATT
B13: AUGUGUC (DNA:RNA)
RNA: B1 RNA with U25A, U27G, C29G, G30U, U31C
DNA 1: CAATCTGAATTCCGGTCTCCC
DNA 2: TGGTGGCTACGACGGGATT
B14: GACGAGA (DNA:RNA)
RNA: B1 RNA with U25G, U26A, U27C, U28G, C29A, U31A
DNA 1: CAATCTGAATTCCGGTCTCCC
DNA 2: TGGTGGCTACGACGGGATT
B15: UGAGGCA (DNA:RNA)
RNA: B1 RNA with U26G, U27A, U28G, C29G, G30C, U31A
DNA 1: CAATCTGAATTCCGGTCTCCC
DNA 2: TGGTGGCTACGACGGGATT
B16: AAGAGGU (DNA:RNA)
RNA: B1 RNA with U25A, U26A, U27G, U28A, C29G
DNA 1: CAATCTGAATTCCGGTCTCCC
DNA 2: TGGTGGCTACGACGGGATT
B17: AGCGUGU (DNA:RNA)
RNA: B1 RNA with U25A, U26G, U27C, U28G, C29U
DNA 1: CAATCTGAATTCCGGTCTCCC
DNA 2: TGGTGGCTACGACGGGATT
B18: GGGGUUU (DNA:RNA)
RNA: B1 RNA with U25G, U26G, U27G, U28G, C29U, G30U
DNA 1: CAATCTGAATTCCGGTCTCCC
DNA 2: TGGTGGCTACGACGGGATT
B19: AUCCUGU (DNA:RNA)
RNA: B1 RNA with U25A, U27C, U28C, C29U
DNA 1: CAATCTGAATTCCGGTCTCCC
DNA 2: TGGTGGCTACGACGGGATT
B20: GACGCGC (DNA:RNA)
RNA: B1 RNA with U25G, U26A, U27C, U28G, U31C
DNA 1: CAATCTGAATTCCGGTCTCCC
DNA 2: TGGTGGCTACGACGGGATT
B21: CAAGAUA (DNA:RNA)
RNA: GGGAGACCGGAAUUCAGAUUGUCCCAAGAUAUUAAAUCCCGUCGUAGCCACCA
DNA 1: CAATCTGAATTCCGGTCTCCC
DNA 2: TGGTGGCTACGACGGGATT
B22: CAUUCAA (DNA:RNA)
RNA: B21 RNA with A27U, G28U, A29C, U30A
DNA 1: CAATCTGAATTCCGGTCTCCC
DNA 2: TGGTGGCTACGACGGGATT
B23: ACACCUC (DNA:RNA)
RNA: B21 RNA with C25A, A26C, G28C, A29C, A31C
DNA 1: CAATCTGAATTCCGGTCTCCC
DNA 2: TGGTGGCTACGACGGGATT
B24: GCCACCG (DNA:RNA)
RNA: B1 RNA with U25G, U26C, U27C, U28A, G30C, U31G
DNA 1: CAATCTGAATTCCGGTCTCCC
DNA 2: TGGTGGCTACGACGGGATT
B25: CGCGACC (DNA:RNA)
RNA: B21 RNA with A26G, A27C, U30C, A31C
DNA 1: CAATCTGAATTCCGGTCTCCC
DNA 2: TGGTGGCTACGACGGGATT
B26: UUUGUCC (DNA:RNA)
RNA: B1 RNA with U28G, C29U, G30C, U31C
DNA 1: CAATCTGAATTCCGGTCTCCC
DNA 2: TGGTGGCTACGACGGGATT
B27: GCGCAAG (DNA:RNA)
RNA: B21 RNA with C25G, A26C, A27G, G28C, U30A, A31G
DNA 1: CAATCTGAATTCCGGTCTCCC
DNA 2: TGGTGGCTACGACGGGATT
B28: GGUAGAU (DNA:RNA)
RNA: B1 RNA with U25G, U26G, U28A, C29G, G30A
DNA 1: CAATCTGAATTCCGGTCTCCC
DNA 2: TGGTGGCTACGACGGGATT
B29: UCUAUGC (DNA:RNA)
RNA: B1 RNA with U26C, U28A, C29U, U31C
DNA 1: CAATCTGAATTCCGGTCTCCC
DNA 2: TGGTGGCTACGACGGGATT
B30: GCAAGGC (DNA:RNA)
RNA: B21 RNA with C25G, A26C, G28A, A29G, U30G, A31C
DNA 1: CAATCTGAATTCCGGTCTCCC
DNA 2: TGGTGGCTACGACGGGATT
B31: GCGCAAC (DNA:RNA)
RNA: B21 RNA with C25G, A26C, A27G, G28C, U30A, A31C
DNA 1: CAATCTGAATTCCGGTCTCCC
DNA 2: TGGTGGCTACGACGGGATT

The target of this assay is T1, RBFOX1 RRM RbFoxmut (Fox-RRM*). The assay is described as follows: EMSA; HiTS-Eq, 1 nM pool, 10 min; buffer printed only for the single-RNA assays: 10 mM Tris pH 7.5, 150 mM NaCl, 3.4 mM EDTA, 0.001% NP-40, 30 C. Conditions: tags: His6 N-terminal (pET28a); label: 5' 32P. The procedure, abridged:
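Relative association constants, normalised to the cognate motif, were derived by comparing read counts of each RNA species with those of the control reaction. The RNA sequenced was the free fraction, separated by 8% native PAGE after a 10 min equilibration in 50 µL of 1 nM 5′-radiolabelled RNA (7 randomized nucleotides) with increasing concentrations of purified wild-type or mutant RbFox RRM.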
Turning to B1, the binding signal was 0.0939 KA relative to UGCAUGU.

Take B2: the binding signal was 0.171 KA relative to UGCAUGU. For the molecule B3, the binding signal is 0.124 KA relative to UGCAUGU.

With B4, the binding signal was 0.0725 KA relative to UGCAUGU. B5: the binding signal was 0.0928 KA relative to UGCAUGU.

With B6, the binding signal was 0.0999 KA relative to UGCAUGU. As for B7, the binding signal is 0.129 KA relative to UGCAUGU. B8: the binding signal was 0.0709 KA relative to UGCAUGU. B9: the binding signal is 0.207 KA relative to UGCAUGU. Take B10: the binding signal was 0.1 KA relative to UGCAUGU.

Turning to B11, the binding signal is 0.0579 KA relative to UGCAUGU. To B12 belongs 0.0805 KA relative to UGCAUGU. As for B13, the binding signal is 0.289 KA relative to UGCAUGU. Turning to B14, the binding signal was 0.0967 KA relative to UGCAUGU. As to B15, the binding signal is 0.136 KA relative to UGCAUGU. As for B16, the binding signal is 0.102 KA relative to UGCAUGU. With B17, the binding signal was 0.16 KA relative to UGCAUGU. For the molecule B18, the binding signal was 0.0858 KA relative to UGCAUGU. B19: the binding signal is 0.139 KA relative to UGCAUGU. With B20, the binding signal was 0.102 KA relative to UGCAUGU. For the molecule B21, the binding signal is 0.132 KA relative to UGCAUGU. As to B22, the binding signal was 0.0789 KA relative to UGCAUGU. B23: the binding signal is 0.0553 KA relative to UGCAUGU.

Take B24: the binding signal was 0.101 KA relative to UGCAUGU. Turning to B25, the binding signal was 0.0878 KA relative to UGCAUGU. In the case of B26, the binding signal was 0.101 KA relative to UGCAUGU. Regarding B27, the binding signal is 0.118 KA relative to UGCAUGU. For B28, the binding signal is 0.104 KA relative to UGCAUGU. As to B29, the binding signal is 0.0911 KA relative to UGCAUGU. On to B30, for which the binding signal is 0.0585 KA relative to UGCAUGU. Regarding B31, the binding signal was 0.0609 KA relative to UGCAUGU.
